Experimental data published in PubChem BioAssay AID504832 (National Center for Advancing Translational Sciences (NCATS), 2011).
Hit rate of the full screen: of about 310,000 compounds, about 18,000 (5.8%) were called active. This list was built around the results that the source calls inconclusive (neither active nor inactive); the mix of calls is not that of the screen. The call rests on the fitted dose curve; in most records, active means well fitted inhibition curve with a large enough effect; inconclusive means small, poorly fitted or top-dose-only effect, or another doubt; inactive means no such curve, though single readings can be large or run the other way. No potency is given beside an inconclusive call; the fits are too rough.

Assay: Primary qHTS for delayed death inhibitors of the malarial parasite plastid, 48 hour incubation
Conditions: P. falciparum luciferase growth in erythrocytes; series mostly up to 28.7 µM; activity change, negative = inhibition: at the top concentration
Outline: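 Read-out is firefly luciferase luminescence from an integrated reporter in P. falciparum, so falling signal marks reduced parasite growth. Infected erythrocytes were at 2% hematocrit and 0.1% parasitemia (final) in Albumax-supplemented RPMI 1640.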
On the % scale 0 is the no-effect control and ±100 the full control effect; potency means the concentration at half of the fitted maximal effect; tags describe the fitted curve by direction and shape.

| Compound | activity change, negative = inhibition | Potency |
| --- | --- | --- |
| CCN(CC)C(=O)c1sc(NC(=O)c2ccoc2C)c(C(=O)OC)c1C | inactive: -13.2% | – |
| CN(C[C@H](Cc1ccccc1)N(C[C@@H](Cc1cccc2ccccc12)N(CCc1ccccc1)N=O)N=O)N=O | – | inconclusive [inhibitor, full curve, poor fit] |
| O=C1[C@@H]2C3C=CC(O3)[C@@H]2C(=O)N1c1ccccc1 | – | inconclusive [inhibitor, single point] |
| CCOc1ccc(-c2cccc(NC(=O)COc3ccccc3)c2)nn1 | inactive: -6.14% | – |
| COc1ccc(/C=C/C(=O)N2CCN(c3ccccn3)CC2)c(OC)c1OC | inactive: -31% | – |
| CC(C)(C)c1ccc(C(=O)NCCN2CCCC2)cc1 | inactive: 14.1% | – |
| O=c1[nH]c(C2CCN(S(=O)(=O)c3ccc(S(=O)(=O)NC4CC4)cc3)CC2)nc2c1nnn2Cc1ccc(F)cc1 | – | inconclusive [inhibitor, partial curve, poor fit] |
| COc1ccc(OC2CCN(S(=O)(=O)c3cccc(F)c3)CC2)cc1 | inactive: 12.5% | – |
| O=C(c1ccc(-c2ccccc2)c(F)c1)C1CCCN(CCO)C1 (stereo not given) | – | inconclusive [inhibitor, single point] |
| CCOC(=O)C1CCN(C(=O)CSc2c3c(nc4ccccc24)CCC3)CC1 | inactive: 0% | – |
| COc1ccc2c(c1)C(C)CC(C)(C)N2C(=O)CSc1nc2ccccc2s1 (stereo not given) | – | inconclusive [inhibitor, single point] |
| COc1ccc(C(=O)Nc2ccc(NC(=O)c3cccs3)cn2)cc1 | inactive: 38.1% | – |
| O=C(OCc1nnc(-c2ccccc2)o1)C1CCN(C(=O)c2ccc(Cl)cc2)CC1 | inactive: 2.34% | – |
| COc1ccc(C(=S)N2CCCCCC2)cc1 | inactive: 24.6% | – |
| Cc1ccc(NC(=S)NCc2ccc(Cl)cc2)c(OC(F)F)c1 | – | inconclusive [inhibitor, single point] |
| CCCCc1cc(=O)oc2cc(C)cc(OCC(=O)N[C@@H](CSCc3ccccc3)C(=O)O)c12 | – | inconclusive [inhibitor, partial curve, poor fit] |
| CN1CCN(C(=S)Nc2ccc(Oc3ccccc3)cc2)CC1 | inactive: 11.8% | – |
| COc1ccc(/C=N/NC(=O)c2ccc(Cn3cc([N+](=O)[O-])cn3)o2)c(OC)c1C | inactive: 4.84% | – |
| COc1cccc(CN(Cc2cccnc2)S(=O)(=O)c2ccc(-n3cnnn3)c(C)c2)c1OC | – | active: 11.7 µM |
| CCc1ccc(CNCc2cccnc2)cc1 | – | inconclusive [inhibitor, single point] |
| CC(C)C(=O)Nc1cccc(C(=O)Nc2cc([N+](=O)[O-])ccc2Cl)c1 | – | inconclusive [inhibitor, single point] |
| O=c1cc(CCl)nc2scc(-c3ccccc3)n12 | – | inconclusive [inhibitor, single point] |
| COc1cc2c(cc1OC)CN(C(=O)c1ccc(-c3ccccc3)cc1)CC2 | – | inconclusive [inhibitor, partial curve, poor fit] |
| O=C(CN1CCOCC1)c1ccc2cc[nH]c2c1 | inactive: 51.1% | – |

| Compound | activity change, negative = inhibition | Potency |
| --- | --- | --- |
| CCOC(=O)Cc1nc2ccccc2o1 | inactive: 10.3% | – |
| COCC(C)n1c(COc2ccccc2F)nnc1SCC(=O)c1c(N)n(C)c(=O)n(C)c1=O (stereo not given) | – | active: 10.4 µM |
| COc1ccc(N2CC(C(=O)Nc3nnc(SCC(=O)N4CCCC4)s3)CC2=O)cc1 (stereo not given) | – | inconclusive [inhibitor, single point] |
| O=C(CSc1nc2ccc([N+](=O)[O-])cc2[nH]1)c1ccc(Cl)cc1 | – | inconclusive [inhibitor, single point] |
| CC(=O)Nc1ccc(-c2csc(NCc3ccco3)n2)cc1 | inactive: 162% | – |
| COc1ccc2nc(NC(=O)C3CCCN(S(=O)(=O)c4cccs4)C3)sc2c1 (stereo not given) | – | active: 9.28 µM |
| CC1=CC(C)(C)N=C(Nc2nc(C)c3cc(C)cc(C)c3n2)N1 | – | inconclusive [inhibitor, single point] |
| O=C(NCc1ccccn1)C(=O)N/N=C/c1ccc2c(c1)OCO2 | inactive: 19.8% | – |
| COc1ccc(CCNC(=O)c2ccc(N(C)S(=O)(=O)c3ccc(C)cc3)cc2)cc1OC | – | inconclusive [inhibitor, partial curve, poor fit] |
| Nc1nc(SCC(=O)Nc2cc(-c3ccccc3)nn2-c2ccccc2)n[nH]1 | inactive: 13.8% | – |
| O=C(NCC1CCCO1)c1cc2c([nH]c3ccccc32)c(-c2cccc(Br)c2)n1 (stereo not given) | – | inconclusive [inhibitor, full curve] |
| Cc1cccc(Oc2ccccc2NC(=O)CN2C(=O)NC3(CCCC3)C2=O)c1 | – | inconclusive [inhibitor, single point] |
| O=C(Nc1ccc(C(F)(F)F)cc1)c1cnc(N2CCN(c3ccccn3)CC2)c2ccccc12 | – | inconclusive [inhibitor, partial curve] |
| CCn1c(O)c(N=NC(=O)c2cccc(S(=O)(=O)N3CCCCC3)c2)c2ccccc21 | – | active: 11.7 µM |
| CC(C)(C)NC(=O)C1Cc2ccccc2CN1 (stereo not given) | – | inconclusive [inhibitor, full curve, poor fit] |
| O=C(/C=C/c1ccc(F)cc1)NCc1ccco1 | inactive: 5.92% | – |
| COc1ccccc1N1CCN(S(=O)(=O)c2ccccc2F)CC1 | – | inconclusive [inhibitor, partial curve] |
| COc1ccc(OCC(=O)Nc2ccc(NC(=O)c3cccs3)c(OC)c2)cc1 | – | inconclusive [inhibitor, single point] |
| O=C(Nc1ccc([N+](=O)[O-])cc1Br)c1cc2ccccc2nc1Cl | – | active: 0.185 µM |
| COc1ccc(N(Cc2ccc(N(C)C)cc2)C(=O)c2ccc(S(C)(=O)=O)cc2)cc1 | – | inconclusive [inhibitor, partial curve, poor fit] |
| O=C1C=C(c2ccccc2)C[C@@H](c2ccc(Cl)cc2)C1 | – | active: 2.62 µM |
| COc1cccc(/C=C2\Oc3cc(OCC(=O)N4CCC[C@H]4C(=O)O)ccc3C2=O)c1 | inactive: 25.7% | – |
| O=C(CCl)Nc1ccc(-c2ccccc2)cc1 | – | inconclusive [inhibitor, partial curve] |
| COc1ccc2[nH]cc(C(=O)CN3CCN(C(=O)c4ccco4)CC3)c2c1 | – | inconclusive [inhibitor, partial curve, poor fit] |

| Compound | activity change, negative = inhibition | Potency |
| --- | --- | --- |
| O=C(CN1CCN(C(=O)CNC(=O)c2ccc3c(c2)OCO3)CC1)Nc1ccccc1Cl | – | inconclusive [inhibitor, partial curve, poor fit] |
| CCN(C(=O)COC(=O)c1ccc(C)c(S(=O)(=O)N2CCCCC2)c1)C1CCS(=O)(=O)C1 (stereo not given) | – | inconclusive [inhibitor, single point] |
| COc1cccc(NC(=O)CN(C)S(=O)(=O)c2ccc(C)cc2)c1 | – | inconclusive [inhibitor, partial curve, poor fit] |
| CCN(CC)S(=O)(=O)c1ccc(N2CCOCC2)c(NS(=O)(=O)c2cccs2)c1 | inactive: 1.11% | – |
| Oc1ccc(C[C@@H]2CNCCN2CCC23CC4CC(CC(C4)C2)C3)cc1 | – | active: 10.4 µM |
| CCc1nnc(NC(=O)CSc2nnc(-c3ccccc3OC)n2-c2ccccc2)s1 | – | inconclusive [inhibitor, single point] |
| Cc1occc1-c1nnc(SCC(=O)NC2CCCCC2)o1 | – | inconclusive [inhibitor, single point] |
| O=C(O)c1ccc(COc2ccc3c4c(c(=O)oc3c2)CCC4)o1 | – | inconclusive [inhibitor, full curve, poor fit] |
| O=C(/C=C/c1ccco1)Nc1ccc(Oc2ccccc2)cc1 | – | inconclusive [inhibitor, single point] |
| Cc1ccc(N(CCC(=O)O)S(=O)(=O)c2ccccc2)cc1 | inactive: -15.6% | – |
| Clc1ccc(N2COC3c4cccc5cccc(c45)C32)cc1 (stereo not given) | – | inconclusive [inhibitor, single point] |
| Cc1sc(-c2ccncc2)nc1OC(=O)c1ccc(F)cc1F | – | inconclusive [inhibitor, partial curve, poor fit] |
| CC(C)Cn1c(N)c(C(=O)NCC2CCCO2)c2nc3ccccc3nc21 (stereo not given) | – | inconclusive [inhibitor, single point] |
| CC(=O)Nc1ccc(N2C(=O)CSC2c2ccccc2[N+](=O)[O-])cc1 (stereo not given) | – | inconclusive [inhibitor, single point] |
| CCC(C)[C@H](NC(=O)NCc1ccco1)C(=O)OC (stereo not given in full) | inactive: 2.39% | – |
| Cc1cc(OC(F)F)ccc1NC(=S)NC1CCCC1 | – | inconclusive [inhibitor, partial curve, poor fit] |
| CC(=O)c1ccc(N2CCN(C(=O)CN3C(=O)NC4(CCCCC4)C3=O)CC2)c(F)c1 | – | inconclusive [inhibitor, single point] |
| O=C(CN1C(=O)/C(=C\c2ccc(C(F)(F)F)cc2)Sc2ccccc21)NCc1ccco1 | – | inconclusive [inhibitor, partial curve] |
| CCOc1cccc(-c2c(C(=O)N/N=C/c3ccoc3)nnn2-c2nonc2N)c1 | inactive: 4.01% | – |
| CC(C)CCNC(=O)C(c1ccncc1)N(Cc1cccs1)C(=O)Cn1nnc(-c2ccc(F)cc2)n1 (stereo not given) | – | active: 14.7 µM |
| CO[C@]1(NC(=O)CSCC#N)C(=O)N2C(C(=O)O)=C(CSc3nnnn3C)CS[C@H]21 | inactive: 4.74% | – |
| COc1cccc(C2CC(c3c(F)cccc3Cl)n3nc(N)nc3N2)c1 (stereo not given) | – | inconclusive [inhibitor, single point] |
